From the supplement of paper PMC10441789
This is one part of the list. Antibody binding of pooled human sera (four to six donors per pool; dilution not stated) to peptides of the Trypanosoma cruzi antigen TSSA on microarrays. Quantile-normalised fluorescence in arbitrary units, mean of duplicate arrays; higher = more binding. No active / inactive call. The uninfected pools are read here as the healthy donors of the same country. The strongest signals lie near the top of the scale (about 60,000).

Assays:
Assay in all cases: antibody binding signal (normalised fluorescence) (arbitrary fluorescence units); higher = stronger serum antibody binding to peptide
[1] = system: pooled sera of chronic Chagas disease patients, Argentina
Procedure: (§1)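 Microarray of overlapping 15-residue peptides of the four Trypanosoma cruzi TSSA reference variants and 8- to 13-residue peptides of TSSAII 24-62, probed with one serum pool per country.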

[2] = system: pooled sera of chronic Chagas disease patients, Bolivia
Procedure: as §1

[3] = system: pooled sera of chronic Chagas disease patients, Brazil
Procedure: as §1

[4] = system: pooled sera of chronic Chagas disease patients, Colombia
Procedure: as §1

[5] = system: pooled sera of chronic Chagas disease patients, Mexico
Procedure: as §1

[6] = system: pooled sera of chronic Chagas disease patients, USA
Procedure: as §1

[7] = system: pooled sera of uninfected people, Argentina
Procedure: as §1

[8] = system: pooled sera of uninfected people, Bolivia
Procedure: as §1

[9] = system: pooled sera of uninfected people, Colombia
Procedure: as §1

[10] = system: pooled sera of uninfected people, Mexico
Procedure: as §1

[11] = system: pooled sera of uninfected people, USA
Procedure: as §1

[12] = system: pooled sera of uninfected people, Brazil
Procedure: as §1

Row | Sequence | antibody binding signal [1] | antibody binding signal [2] | antibody binding signal [3] | antibody binding signal [4] | antibody binding signal [5] | antibody binding signal [6] | antibody binding signal [7] | antibody binding signal [8] | antibody binding signal [9] | antibody binding signal [10] | antibody binding signal [11] | antibody binding signal [12]
1 | GGSTSSTP | 501 | 168 | 370 | 291 | 215 | 343 | 194 | 181 | 111 | 116 | 101 | 
2 | NKPATGEA | 36300 | 26600 | 29800 | 403 | 269 | 16300 | 129 | 561 | 124 | 441 | 345 | 314
3 | PSGTENKPATGE | 42900 | 41200 | 45500 | 893 | 2940 | 24100 | 2120 | 1480 | 359 | 371 | 629 | 358
4 | STSSTPPSGTENK | 53700 | 52800 | 55300 | 738 | 7070 | 32000 | 2700 | 542 | 767 | 550 | 409 | 263
5 | TSSTPPSGTENKP | 56100 | 47700 | 51300 | 349 | 8590 | 39200 | 8950 | 895 | 797 | 575 | 804 | 
6 | GASSGEAEASS | 92.2 | 108 | 701 | 146 | 151 | 77.9 | 137 | 159 | 89.8 | 92.2 | 71.7 | 
7 | PATGEAPSQPGAS | 27800 | 43000 | 44800 | 198 | 212 | 25700 | 906 | 919 | 352 | 172 | 938 | 
8 | PPSGTENKPATGEAP | 50900 | 50000 | 52000 | 458 | 7870 | 45600 | 6580 | 1410 | 460 | 488 | 834 | 785
9 | NKPATGEAPSQPG | 46000 | 48200 | 50600 | 440 | 168 | 40500 | 932 | 647 | 158 | 241 | 200 | 
10 | GGSTISTPPSGTDKK | 29600 | 3490 | 34100 | 2130 | 42200 | 6430 | 414 | 107 | 152 | 617 | 172 | 
11 | PSPSGASSGEAEASS | 124 | 123 | 2720 | 146 | 329 | 112 | 204 | 122 | 77.4 | 92.9 | 159 | 
12 | SQPGASSGEAE | 261 | 119 | 8210 | 161 | 124 | 112 | 148 | 127 | 208 | 133 | 102 | 107
13 | TANGGSTISTPPSGT | 244 | 285 | 337 | 226 | 432 | 313 | 436 | 149 | 161 | 159 | 140 | 171
14 | SQPGASSGEAEA | 237 | 133 | 8220 | 111 | 93.2 | 90.6 | 137 | 103 | 102 | 100 | 63.9 | 106
15 | GGSTSSTPPGTDKKT | 764 | 1600 | 8100 | 5410 | 1700 | 15100 | 140 | 119 | 185 | 1480 | 262 | 
16 | STPPSGTEKKAAAGE | 36000 | 33600 | 32000 | 375 | 13800 | 5410 | 1160 | 336 | 181 | 138 | 132 | 
17 | NKPATGEAP | 45400 | 47800 | 46600 | 477 | 386 | 40300 | 926 | 755 | 210 | 270 | 154 | 
18 | STISTPPSGTEKKAA | 29800 | 13300 | 36800 | 762 | 11700 | 6440 | 5370 | 495 | 312 | 154 | 976 | 
19 | TSSTPPSG | 290 | 345 | 264 | 265 | 245 | 149 | 158 | 138 | 69.2 | 138 | 130 | 
20 | GSTSSTPPGTDKKTA | 1280 | 474 | 15100 | 6970 | 2620 | 20500 | 185 | 95.1 | 212 | 1040 | 293 | 160
21 | EAPSQPGASS | 6040 | 36000 | 905 | 111 | 118 | 448 | 173 | 159 | 192 | 174 | 161 | 
22 | SGTENKPATGE | 38700 | 29500 | 38300 | 249 | 582 | 22600 | 1170 | 1430 | 164 | 315 | 169 | 198
23 | PSQPGASS | 173 | 267 | 561 | 139 | 550 | 211 | 179 | 221 | 156 | 1490 | 222 | 330
24 | TANGGSTSS | 160 | 1160 | 265 | 156 | 259 | 317 | 257 | 154 | 106 | 239 | 213 | 
25 | STPPSGTE | 9970 | 770 | 9220 | 99.8 | 130 | 74 | 72.6 | 157 | 69.9 | 87.9 | 55.8 | 
26 | APSPSGASSGEAEAS | 173 | 230 | 5050 | 157 | 463 | 221 | 303 | 158 | 139 | 105 | 311 | 
27 | EAEASSNKNDGSLSS | 260 | 611 | 421 | 571 | 1300 | 656 | 158 | 164 | 133 | 1840 | 830 | 126

Row | Sequence | antibody binding signal [1] | antibody binding signal [2] | antibody binding signal [3] | antibody binding signal [4] | antibody binding signal [5] | antibody binding signal [6] | antibody binding signal [7] | antibody binding signal [8] | antibody binding signal [9] | antibody binding signal [10] | antibody binding signal [11] | antibody binding signal [12]
28 | SACTTANGGSTSSTP | 539 | 236 | 730 | 473 | 262 | 312 | 216 | 228 | 239 | 175 | 131 | 
29 | ANGGSTISTPPSGTD | 1730 | 3360 | 5920 | 2360 | 1720 | 1420 | 257 | 240 | 183 | 207 | 82.2 | 
30 | SSTPPSGTENKPA | 55800 | 52500 | 54400 | 334 | 13000 | 45400 | 10200 | 1680 | 837 | 753 | 1000 | 
31 | KPATGEAPSQP | 47700 | 37900 | 48100 | 129 | 331 | 40900 | 869 | 851 | 116 | 196 | 146 | 310
32 | TPPGTDKKTAAGGTP | 8190 | 1180 | 3600 | 25200 | 6960 | 6980 | 191 | 111 | 184 | 1260 | 201 | 626
33 | PGASSGEAEAS | 173 | 114 | 7920 | 112 | 159 | 95.8 | 206 | 131 | 84.1 | 83 | 177 | 99.3
34 | TEKKAAAGEAPSPSG | 728 | 492 | 2330 | 707 | 559 | 12100 | 172 | 238 | 129 | 183 | 216 | 
35 | DKKTAAGEAPSPSGA | 577 | 231 | 414 | 524 | 442 | 6370 | 222 | 156 | 1030 | 304 | 170 | 
36 | PPSGTENK | 52400 | 25600 | 51700 | 576 | 9840 | 22600 | 2700 | 633 | 674 | 350 | 734 | 
37 | SQPGASSG | 2020 | 205 | 464 | 150 | 202 | 300 | 178 | 152 | 118 | 316 | 286 | 
38 | KAAAGEAPSPSGASS | 197 | 344 | 5640 | 370 | 2130 | 6380 | 240 | 181 | 76.5 | 90 | 198 | 
39 | SQPGASSGE | 326 | 126 | 8710 | 92.3 | 141 | 116 | 109 | 96.9 | 85.1 | 321 | 145 | 
40 | APSQPGASSG | 5820 | 1240 | 541 | 817 | 17400 | 574 | 210 | 344 | 231 | 5650 | 306 | 
41 | EAPSQPGA | 4360 | 11900 | 1320 | 74.7 | 87.1 | 186 | 176 | 139 | 276 | 237 | 216 | 
42 | CTTANGGSTSSTPPS | 428 | 561 | 1550 | 221 | 268 | 286 | 250 | 275 | 667 | 203 | 144 | 
43 | TGEAPSQP | 11700 | 24700 | 19200 | 87.5 | 78.9 | 4170 | 136 | 75.1 | 73.7 | 74.6 | 54.4 | 
44 | TDKKTAAGGTPSPSG | 1540 | 256 | 183 | 10600 | 443 | 1610 | 112 | 113 | 251 | 233 | 189 | 
45 | TGEAPSQPGAS | 6840 | 37300 | 21200 | 179 | 577 | 2950 | 474 | 942 | 381 | 148 | 979 | 
46 | SGTDKKTAAGEAPSP | 244 | 669 | 1590 | 2570 | 493 | 8690 | 196 | 174 | 1240 | 270 | 122 | 
47 | TPPSGTENKP | 50100 | 49200 | 51200 | 307 | 8240 | 27400 | 7780 | 901 | 805 | 418 | 759 | 
48 | AGEAPSPSGASSGEA | 199 | 161 | 3610 | 299 | 523 | 174 | 389 | 134 | 109 | 103 | 245 | 
49 | SGEAEASSNKNDGSL | 147 | 1130 | 2890 | 463 | 1360 | 1200 | 122 | 200 | 130 | 1550 | 785 | 
50 | TENKPATGEA | 41500 | 27700 | 31800 | 203 | 569 | 17500 | 354 | 716 | 135 | 322 | 382 | 
51 | GASSGEAEASSNKND | 213 | 1420 | 3060 | 553 | 1170 | 937 | 221 | 315 | 176 | 1700 | 871 | 
52 | APSQPGASSGEAEAS | 424 | 438 | 8260 | 161 | 853 | 164 | 261 | 127 | 146 | 664 | 182 | 
53 | QPGASSGEAE | 419 | 113 | 9480 | 117 | 109 | 138 | 192 | 93.5 | 194 | 94.3 | 82.7 | 
54 | GTENKPATGEAP | 46400 | 40900 | 44000 | 1740 | 4170 | 33900 | 1570 | 1510 | 183 | 264 | 218 | 
